Measurements published in US20220023439A1, “ACTIVATABLE ANTI-CD166 ANTIBODIES AND METHODS OF USE THEREOF” (priority 2018, published 2022).

Experiments:
[1] = Pharmacokinetics of total and intact activatable antibody and DM4 metabolites in serum of human subjects
[2] = Activated activatable antibody within subjects' tumors (Western blot); format: in vivo; conditions: human subjects, 4 to 8 mg/kg (AIBW), 11 tumor tissue samples

B1: Combination 55 (conjugate)
heavy: QITLKESGPTLVKPTQTLTLTCTFSGFSLSTYGMGVGWIRQPPGKALEWLANIWWSEDKHYSPSLKSRLTITKDTSKNQVVLTITNVDPVDTATYYCVQIDYGNDYAFTYWGQGTLVTVSS[skipping human IgG1 constant region]
light: QGQSGQGLCHPAVLSAWESCSSGGGSSGGSAVGLLAPPGGLSGRSDNHGGSDIVMTQSPLSLPVTPGEPASISCRSSKSLLHSNGITYLYWYLQKPGQSPQLLIYQMSNLASGVPDRFSGSGSGTDFTLKISRVEAEDVGVYYCAQNLELPYTFGQGTKLEIKRTVAAPSVFIFPPSDEQLKSGTASVVCLLNNFYPREAKVQWKVDNALQSGNSQESVTEQDSKDSTYSLSSTLTLSKADYEKHKVYACEVTHQGLSSPVTKSFNRGEC
modifications: DM4 via SPDB linker
[1]
  Form of anti-CD166 activatable antibody circulating in the serum: predominantly in an intact form
  Ratio of intact to total anti-CD166 activatable antibody for Dose 1 AUC0-tau and Cmax: approximately consistent
[1]; multiple dosing
  Accumulation ratio of minimum plasma concentration (Cmin) (Dose 3:Dose 1) for intact anti-CD166 activatable antibody: ≤ 1.34
  Trend of Cmin accumulation ratio with dose: did not trend with dose
[1]; serum
  DM4-Me circulating, as share of total anti-CD166 activatable antibody: < 1.9 mol %
  Free DM4 circulating, as share of total anti-CD166 activatable antibody: < 1.9 mol %
[1]; single dose
  Intact and total anti-CD166 activatable antibody exposure (AUC0-tau and Cmax) versus dose: generally increased with increasing dose
[2]
  Amount of intratumoral activated activatable antibody versus dosage: increased with the initial dosage
